# Results as given in PubChem BioAssay AID504333 (National Center for Advancing Translational Sciences (NCATS), 2011).
# In all, about 360,000 compounds went through this assay and about 16,000 (4.4%) were called active. The shares of active, inactive and inconclusive entries below differ from those in the screen. Calls follow the shape of the dose curve; as a rule, active = well fitted inhibition curve with a large enough effect; inconclusive = small, poorly fitted or top-dose-only effect; inactive = no such curve, though single readings can be large or run the other way. Potencies beside an inconclusive call are fits to weak or partial responses and may not hold up.
# Molecular target: Bromodomain adjacent to zinc finger domain protein 2B (Homo sapiens) (UniProt Q9UIF8)
# Assay: qHTS Assay for Inhibitors of BAZ2B; also: nearly all actives have a fitted effect of over 60% in size
# Settings: AlphaScreen BAZ2B-H3K14Ac peptide displacement; activity change, negative = inhibition: at 114 µM (top of the series)
# Summary of the method: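 Compounds, titrated to a top concentration of 110 uM, were incubated 30 min at room temperature with preformed BAZ2B/acetyl-K14 H3 peptide complex (50 nM each). Proximity signal was measured by AlphaScreen after 20 min with beads.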
# % is scaled to controls: 0 for no effect and ±100 for the full control effect; potency is read from the fitted curve at half-maximal effect; tags tell the direction and shape of the fitted curve.
# Chain of UniProt Q9UIF8 (Q9UIF8 whole entry, looked up, the tested form may be a part): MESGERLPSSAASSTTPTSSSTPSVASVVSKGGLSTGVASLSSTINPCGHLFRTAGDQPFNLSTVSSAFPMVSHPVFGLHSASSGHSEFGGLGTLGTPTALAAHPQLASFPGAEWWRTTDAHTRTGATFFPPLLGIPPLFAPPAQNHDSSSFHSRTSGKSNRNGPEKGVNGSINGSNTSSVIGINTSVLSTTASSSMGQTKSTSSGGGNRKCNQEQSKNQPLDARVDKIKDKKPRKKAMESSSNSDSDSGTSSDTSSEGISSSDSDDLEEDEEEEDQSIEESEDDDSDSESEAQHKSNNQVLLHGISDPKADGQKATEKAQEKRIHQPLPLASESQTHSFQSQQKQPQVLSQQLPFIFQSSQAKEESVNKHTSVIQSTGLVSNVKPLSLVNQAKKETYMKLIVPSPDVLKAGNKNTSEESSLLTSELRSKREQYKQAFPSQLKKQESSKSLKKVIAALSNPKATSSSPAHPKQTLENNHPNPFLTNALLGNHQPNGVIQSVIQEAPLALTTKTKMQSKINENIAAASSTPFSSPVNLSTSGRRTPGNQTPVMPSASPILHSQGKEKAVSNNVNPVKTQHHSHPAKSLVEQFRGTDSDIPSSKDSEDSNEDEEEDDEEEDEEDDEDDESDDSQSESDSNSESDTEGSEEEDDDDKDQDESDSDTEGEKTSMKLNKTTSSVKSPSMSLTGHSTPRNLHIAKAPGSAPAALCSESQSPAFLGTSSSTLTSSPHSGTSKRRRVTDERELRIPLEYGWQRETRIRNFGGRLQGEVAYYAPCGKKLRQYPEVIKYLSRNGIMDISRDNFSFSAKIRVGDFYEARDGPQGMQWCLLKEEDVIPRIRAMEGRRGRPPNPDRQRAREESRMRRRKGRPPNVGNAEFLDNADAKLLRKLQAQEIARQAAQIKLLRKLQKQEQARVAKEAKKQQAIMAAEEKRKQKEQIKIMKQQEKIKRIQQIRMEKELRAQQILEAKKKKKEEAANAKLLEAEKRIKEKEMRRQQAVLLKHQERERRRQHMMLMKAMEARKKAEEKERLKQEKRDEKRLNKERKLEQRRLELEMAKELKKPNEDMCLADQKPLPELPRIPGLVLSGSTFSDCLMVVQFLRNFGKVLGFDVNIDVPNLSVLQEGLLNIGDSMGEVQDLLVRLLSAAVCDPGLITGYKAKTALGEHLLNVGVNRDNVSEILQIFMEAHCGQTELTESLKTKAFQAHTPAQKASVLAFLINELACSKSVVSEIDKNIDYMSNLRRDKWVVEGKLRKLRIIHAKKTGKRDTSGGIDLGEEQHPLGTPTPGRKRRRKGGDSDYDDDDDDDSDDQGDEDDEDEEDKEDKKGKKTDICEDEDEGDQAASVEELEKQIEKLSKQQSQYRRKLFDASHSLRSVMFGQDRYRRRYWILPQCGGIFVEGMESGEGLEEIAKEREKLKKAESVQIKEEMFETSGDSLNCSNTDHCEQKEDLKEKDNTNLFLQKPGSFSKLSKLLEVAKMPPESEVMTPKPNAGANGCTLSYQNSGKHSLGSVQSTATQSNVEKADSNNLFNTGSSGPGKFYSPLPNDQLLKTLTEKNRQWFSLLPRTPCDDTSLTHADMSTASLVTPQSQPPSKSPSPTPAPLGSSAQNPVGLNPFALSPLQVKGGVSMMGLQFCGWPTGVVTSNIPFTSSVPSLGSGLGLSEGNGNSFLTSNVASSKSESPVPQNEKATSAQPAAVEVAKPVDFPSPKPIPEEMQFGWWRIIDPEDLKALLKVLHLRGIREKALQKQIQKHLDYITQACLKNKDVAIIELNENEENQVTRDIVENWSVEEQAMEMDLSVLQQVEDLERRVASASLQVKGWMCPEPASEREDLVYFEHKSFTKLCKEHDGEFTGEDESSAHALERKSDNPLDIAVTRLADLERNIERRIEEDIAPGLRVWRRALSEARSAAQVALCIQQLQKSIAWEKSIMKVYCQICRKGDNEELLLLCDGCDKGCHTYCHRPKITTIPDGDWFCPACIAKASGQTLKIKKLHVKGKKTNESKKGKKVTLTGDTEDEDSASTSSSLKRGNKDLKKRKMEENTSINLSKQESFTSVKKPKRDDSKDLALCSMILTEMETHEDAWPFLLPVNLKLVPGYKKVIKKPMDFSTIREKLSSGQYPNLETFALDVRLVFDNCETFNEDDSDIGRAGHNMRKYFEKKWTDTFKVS
SMILES,Potency,"activity change, negative = inhibition"
CSCc1ccc(C(=O)N2CCCC(Nc3ccc(F)cc3)C2)o1 (stereo unspecified),"inconclusive: 79.4 µM [inhibitor, single point]",
O=C(Nc1csc(Cc2c(Cl)cccc2Cl)n1)NN1CCOCC1,"inconclusive: 79.4 µM [inhibitor, single point]",
COc1cc(OC)c(/C=N/NC(N)=S)cc1Br,,inactive: -0.539%
CC(NC(=O)CCCN1C(=O)CCn2nc(-c3cn(C)c4ccccc34)cc21)c1ccccc1 (stereo unspecified),,inactive: -5.25%
Cc1ccc(Nc2nc(CSc3nnc(-c4cccnc4)n3-c3ccccc3F)cs2)cc1,"inconclusive: 44.7 µM [inhibitor, partial curve]",
COc1ccccc1CNC(=O)c1cnccn1,"inconclusive: 89.1 µM [inhibitor, single point]",
CCCn1nc(C(=O)OCC(=O)Nc2cccc(OC)c2)c2ccccc2c1=O,"inconclusive: 89.1 µM [inhibitor, single point]",
COc1ccc(C(CNC(=O)COc2ccc(Cl)c(C)c2)N2CCCCC2)cc1 (stereo unspecified),,inactive: -26%
O=C(C1CCCN(S(=O)(=O)c2cccc3nonc23)C1)N1CCN(c2cccc(C(F)(F)F)c2)CC1 (stereo unspecified),"inconclusive: 17.8 µM [inhibitor, full curve]",
O=C(/C=C/c1ccc2c(c1)OCCO2)c1ccc(O)cc1,"inconclusive: 79.4 µM [inhibitor, single point]",
COc1ccc(CN(Cc2cccnc2)C(=S)NCCc2ccccc2)cc1OC,"inconclusive: 70.8 µM [inhibitor, single point]",
O=c1ccc2c(-c3ccccc3S(=O)(=O)O)c3ccc(O)c(O)c3oc-2c1O,active: 1 µM,
Cc1cccc(Oc2ccc(N)cc2)c1,"inconclusive: 44.7 µM [inhibitor, partial curve]",
N#C/C(=C\c1sc(N2CCOCC2)nc1-c1ccccc1)C(=O)Nc1cccc2ccccc12,,inactive: 7.15%
Cc1ccsc1/C=N/Nc1ncnc2nc[nH]c12,"inconclusive: 89.1 µM [inhibitor, single point]",
CC1=NN(c2ccccc2)C(=O)C1N=Nc1cccc(O)c1 (stereo unspecified),"inconclusive: 5.01 µM [inhibitor, full curve]",
CCCOc1ccc(C(=O)N2CCN(c3ccc(N)cc3Cl)CC2)cc1,"inconclusive: 70.8 µM [inhibitor, single point]",
COC(=O)c1ccc([C@H]2Nc3ccc(S(=O)(=O)Nc4ccc(F)cc4)cc3[C@H]3C=CC[C@H]32)cc1,"inconclusive: 35.5 µM [inhibitor, partial curve]",
CCN(Cc1ccccc1)S(=O)(=O)c1ccc(C(=O)N(CCCN(C)C)c2nc3cc4c(cc3s2)OCO4)cc1,active: 25.1 µM,
OC1CCN(Cc2cccc3ccccc23)CC1,active: 50.1 µM,
COc1ccccc1C(=O)Nc1ccnn1C1CCN(CCCc2ccccc2)CC1,,inactive: -12.9% [at 57.1 µM]
CC(=O)N1CCn2c3c(c4cc(C)ccc42)CCCC31 (stereo unspecified),active: 35.5 µM,
COc1ccc(-c2ccc(NS(=O)(=O)c3cc([N+](=O)[O-])c(C)c([N+](=O)[O-])c3)cc2)nn1,"inconclusive: 70.8 µM [inhibitor, single point]",
Cc1cc(C(=O)CCl)c(C)n1CCc1ccc(Cl)cc1,"inconclusive: 50.1 µM [inhibitor, partial curve]",

SMILES,Potency,"activity change, negative = inhibition"
COc1ccccc1N1CCN(c2c(CN3CCCC3)c(=O)oc3ccccc23)CC1,,inactive: -18.8%
CCOc1ccc(S(=O)(=O)N(CC(=O)NCCc2ccc(OC)cc2)c2ccccc2)cc1,,inactive: -2.29%
Cc1ccc(NC(=O)CNCc2ccccc2Cl)cc1S(=O)(=O)N(C)C,active: 50.1 µM,
COc1ccc(N2C(=O)C3C(c4ccc(C(=O)O)cc4)NC(Cc4ccccc4)(C(=O)O)C3C2=O)c([N+](=O)[O-])c1 (stereo unspecified),"inconclusive: 79.4 µM [inhibitor, single point]",
Cc1ccc(-n2nnnc2SCC(=O)N2CCc3ccccc3C2)cc1,,inactive: 8.21%
CCOC(=O)c1cc(-c2ccc(OC)cc2)nn1-c1ccccc1C(=O)O,"inconclusive: 15.8 µM [inhibitor, full curve]",
Cc1ccc(C(=O)Nc2nnc(S(=O)(=O)Nc3ccccc3C)s2)cc1C,"inconclusive: 70.8 µM [inhibitor, single point]",
CCOc1ccc(CN2C(=O)c3ccccc3Sc3ccc(C(=O)NCCCN4CCOCC4)cc32)cc1,active: 79.4 µM,
O=C(/C=C/Nc1ccc(Br)cn1)c1cccc(OC(F)F)c1,,inactive: -2.87%
CCOC(=O)c1c2ccc(OCC(=O)N/N=C/c3ccc(C)cc3)cc2n2ccccc12,"inconclusive: 50.1 µM [inhibitor, partial curve]",
CCOC(=O)C1CCN(S(=O)(=O)c2ccc(CN3C(=O)c4cccnc4C3=O)cc2)CC1,"inconclusive: 56.2 µM [inhibitor, partial curve]",
CC(C)c1ccc(Nc2sc(C(=O)c3ccccc3)c(N)c2S(=O)(=O)c2ccccc2)cc1,"inconclusive: 25.1 µM [inhibitor, full curve, poor fit]",
CCc1nc2ccc(C(=O)N3CCN(c4cccc(Cl)c4)CC3)cc2nc1CC,"inconclusive: 79.4 µM [inhibitor, single point]",
CC(C)CC(=O)Nc1nnc(S(=O)(=O)N2c3ccccc3CC2C)s1 (stereo unspecified),"inconclusive: 14.1 µM [inhibitor, full curve]",
CCC1(C)CC(=O)c2c(ccc3oc(C(=O)Nc4ccc(C(C)=O)cc4)c(C)c23)O1 (stereo unspecified),,inactive: 0.108%
COC(=O)c1cc2c(-c3ccccc3)c(C)c3ccccn3c-2c1C(=O)OC,active: 14.1 µM,
O=C(c1cc(Cl)ccc1Cl)N1CCc2ccccc21,,inactive: -4.16%
CC(=O)c1c(COC(=O)c2ccco2)nc2ccccc2[n+]1[O-],active: 50.1 µM,
COc1cc(NC(C)CCCN)c2ncccc2c1Oc1ccccc1 (stereo unspecified),"inconclusive: 79.4 µM [inhibitor, single point]",
CCC(=O)N(CCC(Cc1ccccc1)c1ccco1)Cc1ccco1 (stereo unspecified),"inconclusive: 89.1 µM [inhibitor, single point]",
CCn1ccnc1CN(C)C(=O)c1cc(COc2ccccc2SC)on1,"inconclusive: 79.4 µM [inhibitor, single point]",
O=[N+]([O-])c1ccc(N/N=C/c2cn(Cc3ccc(F)cc3)c3ccccc23)nc1,"inconclusive: 50.1 µM [inhibitor, partial curve]",
COc1ccc(-c2cc(-c3ccccc3)nc(NN)n2)cc1OC,"inconclusive: 50.1 µM [inhibitor, partial curve]",
CCOC(=O)C1CCCN(C(=O)c2ccc(S(=O)(=O)NCc3ccco3)cc2)C1 (stereo unspecified),,inactive: -5.36%

SMILES,Potency,"activity change, negative = inhibition"
CCOc1nc(NCCO)nc(NCCC2=CCCCC2)n1,,inactive: -2.88%
CCOC(=O)Cc1csc(N/N=C\c2ccccc2OC)n1,"inconclusive: 89.1 µM [inhibitor, single point]",
COc1ccc(NC(=S)N2CCC(Cc3ccccc3)CC2)cc1,"inconclusive: 39.8 µM [inhibitor, full curve, poor fit]",
COc1ccc(Cc2nc(-c3ccc(-n4cccc4)cc3)no2)cc1OC,"inconclusive: 79.4 µM [inhibitor, single point]",
CCc1cccc(NC(=O)C(Cc2ccccc2)NS(=O)(=O)c2cccs2)c1 (stereo unspecified),,inactive: 0.989%
COc1ccc(C2CC(c3ccc(C)cc3)=NN2C(=O)CCC(=O)O)cc1OC (stereo unspecified),"inconclusive: 89.1 µM [inhibitor, single point]",
CC(=O)Oc1c(C(=O)c2nnc(C)o2)c(=O)n(C)c2ccccc12,,inactive: 5.57%
CC(=O)c1ccc(Nc2cc(C)nc3nc(Cc4ccccc4)nn23)cc1,,inactive: -6.77%
O=C(O)CC(C(=O)O)N1C(=O)/C(=C/c2ccc(-c3nc4ccccc4s3)o2)SC1=S (stereo unspecified),active: 50.1 µM,
COc1ccc(N2CCN(C(=O)c3ccc(NS(=O)(=O)c4ccc(F)cc4)cc3)CC2)cc1,"inconclusive: 44.7 µM [inhibitor, partial curve]",
CC1CC(C)(C)Nc2ccc(OC(=O)c3ccco3)cc21 (stereo unspecified),"inconclusive: 25.1 µM [inhibitor, partial curve]",
CCOC(=O)C1=C(N)Oc2cc(O)ccc2C1c1ccc(C)cc1 (stereo unspecified),"inconclusive: 44.7 µM [inhibitor, partial curve]",
S=C(NCCCN1CCOCC1)Nc1ccc(N2CCOCC2)cc1,,inactive: -6.82%
O=[N+]([O-])c1ccc(C=Nc2ccc(Cl)c([N+](=O)[O-])c2)s1,"inconclusive: 89.1 µM [inhibitor, single point]",
COc1cc(/C=C/c2cc[n+](C)cc2)ccc1OCC(=O)Nc1ccc(Cl)c(Cl)c1,"inconclusive: 44.7 µM [inhibitor, partial curve]",
CC1=[N+](C)c2ccc3ccccc3c2C1(C)C,active: 50.1 µM,
O=C(O)Cn1ncc2c1-c1ccoc1CC2,"inconclusive: 89.1 µM [inhibitor, single point]",
N#C/C(=C/c1ccc(N2CCCCCC2)o1)c1ccc(Cl)cc1,active: 44.7 µM,
Cc1ccc(-c2nc(NC(=O)CSc3nnc4scc(-c5ccccc5)n34)ns2)cc1,"inconclusive: 79.4 µM [inhibitor, single point]",
Cc1ccc(NC(=O)C2C3C=CC(O3)C2C(=O)O)cc1C (stereo unspecified),active: 89.1 µM,
COc1ccc(Cn2c(-c3ccc(OC)c(O)c3)nc3ccccc32)cc1O,"inconclusive: 56.2 µM [inhibitor, partial curve]",
NS(=O)(=O)c1ccc(N/C=C\C(=O)c2ccc3ccccc3c2)cc1,"inconclusive: 89.1 µM [inhibitor, single point]",
CCOC(=O)C1=c2/c(=C/c3ccncc3)c(N)c(C(=O)OC)n2C(=O)C(c2ccncc2)S1 (stereo unspecified),"inconclusive: 79.4 µM [inhibitor, single point]",
